To fix the notation:
B1: PhoQ; a variant is named by its letters at X, in order, P23837 (parent)
chain: MKKLLRLFFPLSLRVRFLLATAAVVLVLSLAYGMVALIGYSVSFDKTTFRLLRGESNLFYTLAKWENNKLHVELPENIDKQSPTMTLIYDENGQLLWAQRDVPWLMKMIQPDWLKSNGFHEIEADVNDTSLLLSGDHSIQQQLQEVREDDDDAEMTHSVAVNVYPATSRMPKLTIVVVDTIPVELKSSYMVWSWFIYVLSANLLLVIPLLWVAAWWSLRPIEALAKEVRELEEHNRELLNPATTRELTSLVRNLNRLLKSERERYDKYRTTLTDLTHSLKTPLXXLQXXLRSLRSEKMSVSDAEPVMLEQISRISQQIGYYLHRASMRGGTLLSRELHPVAPLLDNLTSALNKVYQRKGVNISLDISPEISFVGEQNDFVEVMGNVLDNACKYCLEFVEISARQTDEHLYIVVEDDGPGIPLSKREVIFDRGQRVDTLRPGQGVGLAVAREITEQYEGKIVAGESMLGGARMEVIFGRQHSAPKDE

This is one part of the list.

In the test the parent is B1. Kind of test: enrichment ratio after two sorts for PhoP signalling (ratio (wild type AVST 3.29)); higher = more functional. Particulars: with PhoP (E. coli).
On to IANR, for which the enrichment ratio is not above 0.25. The result for KIMA reads not above 0.25. For the variant HELK, the enrichment ratio is not above 0.25.

Consider LLEW, for which the enrichment ratio is not above 0.25.

With TKYL, the enrichment ratio amounted to 2.59.

Consider EGLD, for which the enrichment ratio is not above 0.25. Regarding LVAM, the enrichment ratio was not above 0.25.

Take AWNL: the enrichment ratio is not above 0.25. Take TSPH: the enrichment ratio is not above 0.25. For the variant QRYT, the enrichment ratio was not above 0.25. With QKVL, the enrichment ratio was not above 0.25. For WWGH, the enrichment ratio is not above 0.25.

For the variant METL, the enrichment ratio was 3.99.

Regarding RTGH, the enrichment ratio was not above 0.25. Regarding EMKM, the enrichment ratio is not above 0.25. The result for KTWL reads not above 0.25. For SFRM, the enrichment ratio is not above 0.25.

Consider VWYK, for which the enrichment ratio was not above 0.25.

Take RSNG: the enrichment ratio was not above 0.25. In the case of DPTW, the enrichment ratio is not above 0.25. Regarding RIHV, the enrichment ratio was not above 0.25. The result for KYQT reads not above 0.25; that for QVWN, not above 0.25. On to LTGI, for which the enrichment ratio is not above 0.25.

Turning to PHRH, the enrichment ratio was not above 0.25. The result for AHWG reads not above 0.25; that for WWYL, not above 0.25. RNLI: the enrichment ratio is not above 0.25. The same measure for TAHW: not above 0.25. For the variant DMHP, the enrichment ratio is not above 0.25. Take THFS: the enrichment ratio was not above 0.25.

Regarding MYDD, the enrichment ratio was not above 0.25.

Consider KPTS, for which the enrichment ratio was not above 0.25. For DHCH, the enrichment ratio is not above 0.25. The same measure for YREM: not above 0.25; for KYHT: not above 0.25; for LNCY: 2.05. Regarding ATAF, the enrichment ratio amounted to 10.1. For YMYW, the enrichment ratio is not above 0.25.

Regarding ICTC, the enrichment ratio is not above 0.25.

As to FAPQ, the enrichment ratio is not above 0.25.

GLIS: the enrichment ratio was not above 0.25. LLPV: the enrichment ratio was not above 0.25. Consider ESQP, for which the enrichment ratio is not above 0.25. The same measure for LFGM: not above 0.25. With SWGA, the enrichment ratio was not above 0.25. On to PCVH, for which the enrichment ratio is not above 0.25. As for RLTL, the enrichment ratio was not above 0.25.

In the case of ASTY, the enrichment ratio is 7.94. With NSWL, the enrichment ratio was found to be 1.26. With HEFC, the enrichment ratio is not above 0.25. TPDT: the enrichment ratio was not above 0.25. With TPHL, the enrichment ratio is not above 0.25. Take QQWH: the enrichment ratio came out at 10.2.

On to HQKF, for which the enrichment ratio was not above 0.25.

On to YWWA, for which the enrichment ratio was not above 0.25. On to STWR, for which the enrichment ratio was not above 0.25. For YNHH, the enrichment ratio is not above 0.25. For the variant RSYI, the enrichment ratio was not above 0.25. Turning to CDFS, the enrichment ratio is not above 0.25. Consider GDEF, for which the enrichment ratio is not above 0.25. As for RPFY, the enrichment ratio was not above 0.25. KEIL: the enrichment ratio was not above 0.25. For INSD, the enrichment ratio was not above 0.25. As for PMYL, the enrichment ratio was not above 0.25. Take KLFS: the enrichment ratio was not above 0.25.

Take VANL: the enrichment ratio was not above 0.25. The same measure for LLWM: not above 0.25; for RLPL: not above 0.25; for CLYT: not above 0.25.

For the variant YQLY, the enrichment ratio was not above 0.25. In the case of TWES, the enrichment ratio is not above 0.25. The result for TKWF reads 13.4.

Take APCV: the enrichment ratio was not above 0.25. For the variant YVNK, the enrichment ratio is not above 0.25. On to MCCN, for which the enrichment ratio was 1.43. The result for VILL reads 2.96. As for GGCV, the enrichment ratio was determined as 3.43. The same measure for KKTI: not above 0.25; for PGIE: not above 0.25; for DDFF: not above 0.25. The same measure for RSYY: not above 0.25; for QFGQ: not above 0.25; for DLCM: not above 0.25. As for TIGI, the enrichment ratio amounted to 9.38. The result for SRIC reads not above 0.25; that for AYIC, not above 0.25. As for FKFY, the enrichment ratio was not above 0.25. For the variant SVYV, the enrichment ratio was determined as 0.398. For WKCY, the enrichment ratio was not above 0.25. In the case of CNDR, the enrichment ratio is not above 0.25.

As for PKHI, the enrichment ratio was not above 0.25. On to SAMT, for which the enrichment ratio was determined as 7.63. As for LIAW, the enrichment ratio was not above 0.25. Turning to HPVN, the enrichment ratio is not above 0.25. As to AYRN, the enrichment ratio is not above 0.25. The result for AEIN reads 1.09; that for ASDG, not above 0.25. The same measure for SMGP: not above 0.25; for INHA: not above 0.25; for LVQP: not above 0.25. Consider EETL, for which the enrichment ratio is not above 0.25. For the variant QFDK, the enrichment ratio was not above 0.25.

For WFMR, the enrichment ratio is not above 0.25. Take NAHI: the enrichment ratio turned out to be 5.51. Regarding HPFW, the enrichment ratio was not above 0.25.

AYIA: the enrichment ratio was not above 0.25. In the case of MNHL, the enrichment ratio is not above 0.25. The result for LYIR reads not above 0.25. Consider DADS, for which the enrichment ratio was not above 0.25.

Turning to QIFT, the enrichment ratio is not above 0.25. The result for FQGD reads not above 0.25; that for MCMM, 11.9; that for EHPQ, not above 0.25. Consider KPFK, for which the enrichment ratio was not above 0.25. The same measure for KNAL: not above 0.25; for DEPW: not above 0.25; for IRSR: not above 0.25.

Regarding VNYL, the enrichment ratio was not above 0.25.

With YGYL, the enrichment ratio was not above 0.25. On to IEYL, for which the enrichment ratio was not above 0.25. As for DASN, the enrichment ratio is not above 0.25. As for MSSM, the enrichment ratio is 11.9. Regarding VFSA, the enrichment ratio was not above 0.25.

Regarding NSNG, the enrichment ratio was not above 0.25. Regarding FQIC, the enrichment ratio is not above 0.25.

On to PNFM, for which the enrichment ratio is not above 0.25. For YDQY, the enrichment ratio is not above 0.25. The same measure for RHAG: not above 0.25; for RMHL: not above 0.25; for EVLD: not above 0.25. On to WTMG, for which the enrichment ratio was not above 0.25. Consider PQDG, for which the enrichment ratio is not above 0.25. For GVPS, the enrichment ratio was not above 0.25. As to DFDG, the enrichment ratio is not above 0.25. For NSSA, the enrichment ratio was 0.603. As for IPGC, the enrichment ratio was not above 0.25. On to HDPM, for which the enrichment ratio was not above 0.25. The result for VNWF reads not above 0.25. The result for ELWC reads not above 0.25; that for HPRH, not above 0.25; that for KVKF, not above 0.25.

Turning to RMNC, the enrichment ratio was not above 0.25.

For TWFF, the enrichment ratio is not above 0.25. Regarding LPHS, the enrichment ratio is not above 0.25. As for AMIE, the enrichment ratio is not above 0.25. Take LRWT: the enrichment ratio was not above 0.25. Turning to DPRP, the enrichment ratio was not above 0.25. For MPLN, the enrichment ratio was not above 0.25. The result for RAAV reads not above 0.25; that for RTEI, not above 0.25; that for RQHP, not above 0.25. The result for NEPY reads not above 0.25; that for MCMN, not above 0.25; that for YGVR, not above 0.25.

ENPN: the enrichment ratio is not above 0.25. Turning to TLWP, the enrichment ratio is not above 0.25. For IFNR, the enrichment ratio is not above 0.25. For AFMF, the enrichment ratio is not above 0.25. On to HYIW, for which the enrichment ratio is not above 0.25. For GHML, the enrichment ratio was not above 0.25. YYYA: the enrichment ratio was not above 0.25.

As to VGFM, the enrichment ratio amounted to 4.1.

With WGFT, the enrichment ratio is not above 0.25. Consider HAMR, for which the enrichment ratio is not above 0.25.

For WWTG, the enrichment ratio was not above 0.25. In the case of KSGH, the enrichment ratio was not above 0.25. In the case of TNPP, the enrichment ratio is not above 0.25.

Consider PCCT, for which the enrichment ratio was not above 0.25.

Take QSPY: the enrichment ratio was not above 0.25. With RHSV, the enrichment ratio was not above 0.25. In the case of NWDC, the enrichment ratio is not above 0.25.

Regarding VHAG, the enrichment ratio is not above 0.25. Regarding NEII, the enrichment ratio is not above 0.25.

Turning to WYVR, the enrichment ratio is not above 0.25. DKHT: the enrichment ratio is not above 0.25.

Regarding DKGN, the enrichment ratio was not above 0.25. The same measure for NDPL: not above 0.25; for GKCH: not above 0.25. Regarding SDDM, the enrichment ratio was not above 0.25. Regarding PCVK, the enrichment ratio was not above 0.25. The same measure for YVMF: not above 0.25.

Turning to WGMI, the enrichment ratio was not above 0.25. With HFAT, the enrichment ratio was not above 0.25. On to MREV, for which the enrichment ratio was not above 0.25. As to HAFM, the enrichment ratio was not above 0.25. As for ILNW, the enrichment ratio is not above 0.25. With SRYS, the enrichment ratio is not above 0.25.

Consider HQHL, for which the enrichment ratio is not above 0.25.

For IECE, the enrichment ratio was not above 0.25. For KARF, the enrichment ratio was not above 0.25. On to IGDC, for which the enrichment ratio was not above 0.25. As for FSWM, the enrichment ratio was not above 0.25. As for HPSE, the enrichment ratio was not above 0.25. In the case of DSWL, the enrichment ratio is not above 0.25.

For the origin of these results see a collection of fitness landscapes (doi:10.1126/science.1257360).
